Results taken from PubChem BioAssay (NCI).
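Five concentrations, 48 hours, 96-well plates. The concentration for 50% growth inhibition is given as GI50. The concentration for full growth arrest is given as TGI.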

test system: NCI-H322M lung; experiment: DTP human tumour cell line panel, 48 h

SMILES | TGI [µM] | GI50 [µM]
CC1=CC(=O)c2cccc(O)c2C1=O | 32.3 | –
CC(C)C(OC(=O)c1cc(NC(=S)c2ccccc2)ccc1Cl)C(C)C | > 100 | –
Cc1nnc2sc(-c3ccc(N)cc3)nn12 | > 100 | –
CCCCCn1ncc(-c2c(O)c(O)cc3c(O)c(-c4c(C)cc5c(-c6cnn(CCCCC)n6)c(O)c(O)cc5c4O)c(C)cc23)n1 | 6.19 | 0.914
CC(=O)N1C(=O)C(=O)c2cc(Cl)ccc21 | > 100 | –
Cc1nnc2nc(-c3ccc(Cl)cc3Cl)cc(-c3ccc(Cl)cc3)n12 | > 100 | –
CN([N-]C(=O)CC(=O)[N-]N(C)C(=S)c1ccccc1)C(=S)c1ccccc1.[Cu+2] | 0.225 | 0.0992
CCCCNC(=O)C1=C(C)NC(C)=C(C(=O)NCCCC)C1 | > 100 | –
CC(=O)NC1C(OCc2ccccc2)OC(CO)C(O)C1OCC(=O)NC(C)C(=O)NC(CCC(=O)OCCNC(=O)c1cccc2cc3ccccc3nc12)C(N)=O (configuration not stated) | 54.1 | –
CCN(CC)CCNC(=O)c1ccccc1Nc1c(Cl)cccc1Cl | 26.3 | –
O=C(CN1CCOCC1)NC1=Nc2ncccc2C(=O)NN1 | > 10 | –
Cc1ccccc1N=Nc1ccc(N=Nc2c(O)ccc3cc(S(=O)(=O)O)cc(S(=O)(=O)O)c23)c(C)c1 | > 100 | –
O=C(O)C1(C(=O)O)CCN(S(=O)(=O)c2ccccc2)CC1 | > 100 | –
CCOC(=O)NC(=O)c1cn(-c2ccc(CCOC(=O)CCCCCCCCC(=O)OCCc3ccc(-n4cc(C(=O)NC(=O)OCC)c(=O)[nH]c4=O)cc3)cc2)c(=O)[nH]c1=O | > 100 | –
COc1cccc2c1C(=O)c1c(O)c3c(c(O)c1C2=O)C[C@@](O)(C(=O)COC(=O)c1cccnc1)C[C@@H]3OC1CC(N)C(O)C(C)O1 (some centres not stated) | 3.75 | 0.365
NC(=O)c1nnc2cc(F)c(F)cc2c1N | > 100 | –
CCCCCCc1ccc(O)cc1O | > 100 | –
CC[O+]=c1cccc2ssnc1-2 | > 100 | –
CC(C)c1cccc2sc(NC(=O)C(=O)CC(=O)c3ccc(F)cc3)nc12 | > 100 | –
CN[C@@H]1[C@H](O)[C@H](NC)[C@H]2O[C@@]3(O)C(=O)C[C@@H](C)O[C@H]3O[C@@H]2[C@H]1O | > 100 | –
CCOC(=O)C1C(=O)CC(C)(O)C(C(=O)OCC)C1c1ccc(O)c(OC)c1 (configuration not stated) | > 100 | –
O=C1CC(CC(O)C(O)CO)CC(=O)N1 (configuration not stated) | > 100 | –
CC(C)(C)c1ccc(NC(=O)c2cc(=O)c3ccccc3[nH]2)c(C(C)(C)C)c1O | 26.8 | 13.2

SMILES | TGI [µM] | GI50 [µM]
O=c1[nH]ncc2[nH]c3c(c12)CCCc1ccccc1-3 | > 100 | –
CC(C)(C)c1cc2c(OP(c3ccccc3)c3ccccc3)c(c1)Cc1cc(C(C)(C)C)cc(c1OP(c1ccccc1)c1ccccc1)Cc1cc(C(C)(C)C)cc(c1OP(c1ccccc1)c1ccccc1)Cc1cc(C(C)(C)C)cc(c1OP(c1ccccc1)c1ccccc1)C2 | > 50 | > 50
C[n+]1ccccc1/C=C/c1ccc2c(c1)OCO2 | > 10 | –
COC(=O)/C1=C/C2CC(/C=C(/c3ccccc3)C(=O)O1)C2 | > 100 | –
O=[N+]([O-])/C(Cl)=C(\Sc1ccccc1)C(Cl)=C(Cl)Cl | 3.45 | –
Cc1ccc(NCCN(C)CC(C)O)c2c(=O)c3ccc(Cl)cc3sc12 (configuration not stated) | > 100 | 3
CC(=O)c1ccc(NCn2nc(-c3ccccc3O)oc2=S)cc1 | > 100 | > 100
CCOP(=O)(C/C(=N/NC(C)(C)C)C(=O)Nc1nc2ccc(C)cc2s1)OCC | > 100 | –
CP(=O)(CCSc1ccccc1)c1ccccc1 (configuration not stated) | > 100 | –
Cc1ccc2c(c1)C(=O)C1(C2)Cc2ccc(C)cc2C1=O | > 100 | –
COC(=O)c1cc(Cl)ccc1NC(=O)C1CCCCC1 | > 100 | –
COc1cc(CSc2ccc(O)cc2)cc(O)c1O | > 100 | –
CC1(C)[C@@H]2C[C@H]1C(Cc1ccccc1C[C@H]1c3cc(-c4ccccn4)ncc3[C@H]3C[C@@H]1C3(C)C)c1cc(-c3ccccn3)ncc12 (some centres not stated) | 35 | –
CCCCC/C=C1\CCC(CN2CCOCC2)C1=O (configuration not stated) | 37 | –
CCN(CCc1ccc(F)cc1)c1ccc(CO)c(Cl)c1 | 25.4 | 12
C/C(=C\c1ccccc1)C(O)S(=O)(=O)O (configuration not stated) | > 100 | –
CC1=C(CC/C(C)=C/CCC2(C)CCC([C@H](C)C(=O)O)OO2)C(C)(C)CCC1 (some centres not stated) (tested in a mixture with another compound) | > 100 | –
CCC(=O)[O-].CCC(=O)[O-].N.N.N.N.[Co+3].[O-][Cl+3]([O-])([O-])[O-] | > 100 | > 100
Cc1cc(C)c(S(=O)(=O)Oc2ccccc2[N+](=O)[O-])c(C)c1 | > 100 | 4.07
CNNC1=NS(=O)(=O)c2cc(C(=O)OC)c(Cl)cc2S1 | > 10 | –
COc1cc(/C=C\c2cc(/C=C\c3ccc(O)c(OC)c3)n(C(=O)Nc3ccc(C(F)(F)F)cc3)n2)ccc1O | 12.9 | 3.25
NC(CCc1nc(-c2ccccc2)cs1)C(=O)O (configuration not stated) | > 100 | –
CCOc1ccccc1N=NC1C(=O)N(C(=O)CC(=O)Nc2ccccc2Cl)N=C1C (configuration not stated) | > 100 | –
